This passage reports Potency results from PubChem BioAssay AID360 (National Center for Advancing Translational Sciences (NCATS), 2006).

Structures are written as SMILES. Hit rate of the full screen: of about 48,000 compounds, about 550 (1.1%) were called active. Roughly 4% stayed inconclusive and do not appear here. Cut-off read from the data, not from the text of the source: active = potency below about 15 µM; inconclusive = mostly about 16 µM to 33 µM; inactive = weaker than that. The list shows a part of the results.
Potency is the fitted concentration of half-maximal effect.

UniProt P04062, sequence (P04062 whole entry, looked up): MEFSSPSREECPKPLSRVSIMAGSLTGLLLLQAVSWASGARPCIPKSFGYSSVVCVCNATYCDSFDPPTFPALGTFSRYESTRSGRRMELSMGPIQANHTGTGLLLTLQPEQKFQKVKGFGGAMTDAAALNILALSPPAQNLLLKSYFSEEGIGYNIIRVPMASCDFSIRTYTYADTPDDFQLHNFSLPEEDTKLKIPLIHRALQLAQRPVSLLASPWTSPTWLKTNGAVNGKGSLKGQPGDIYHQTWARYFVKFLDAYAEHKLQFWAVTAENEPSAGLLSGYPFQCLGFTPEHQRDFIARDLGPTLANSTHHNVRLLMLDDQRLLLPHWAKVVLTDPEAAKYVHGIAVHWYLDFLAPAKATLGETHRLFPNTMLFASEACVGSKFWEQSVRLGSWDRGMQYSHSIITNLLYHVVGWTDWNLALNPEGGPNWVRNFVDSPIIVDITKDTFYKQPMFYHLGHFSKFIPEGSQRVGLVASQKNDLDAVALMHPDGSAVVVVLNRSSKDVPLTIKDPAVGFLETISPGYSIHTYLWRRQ

The assay addresses Lysosomal acid glucosylceramidase (Homo sapiens) (UniProt P04062). As to the kind of experiment: Glucocerebrosidase.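 Note: the screen sought inhibitors.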 As to conditions: purified enzyme, resorufin glucoside fluorescence (screen aimed at inhibitors), 20 min; series mostly up to 77 µM. In short, it runs like this:
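Wild-type enzyme at 0.2 nM final in 50mM citric acid/KH2PO4, 10mM sodium taurocholate, 0.01% tween-20, pH 5.9, with resorufin beta-D-glucopyranoside at 30 uM final. Compounds titrated, 20 min at RT, red fluorescence read; AC50 from titration.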
`Cc1ccccc1OCC(=O)N(Cc1nc(-c2ccccc2)no1)C(C)C`: the Potency was inactive: > 76.9 µM.
In the case of `c1ccc(Cn2nnc3c(N4CCCC4)ncnc32)cc1`, the Potency is inactive: > 76.9 µM.
Under `CCOC(=O)COc1ccc(S(=O)(=O)NCc2ccncc2)cc1` stands inactive: > 76.9 µM.
Under `Cc1ccc(CN2C(=O)CCC2C(=O)N2CCN(c3ccc(F)cc3)CC2)cc1` (configuration not stated) stands inactive: > 76.9 µM.
Under `CC(=O)COc1cc(C)cc2oc(=O)c(C)c(C)c12` stands inactive: > 76.9 µM; under `O=C(OCc1nc2ccccc2s1)C1CCN(S(=O)(=O)c2cccs2)CC1`, inactive: > 76.9 µM; under `CCOc1ccc(CCNC(=O)Cn2c(-c3nonc3N)nc3ccccc32)cc1OCC`, inactive: > 76.9 µM.
In the case of `COc1ccccc1NC(=O)c1nnn(CC(=O)Nc2ccccc2)c1N`, the Potency is inactive: > 76.9 µM.
Take `COCCCNC(=O)C1CCN(C(=O)Nc2ccc(Cl)cc2)CC1`: the Potency was inactive: > 76.9 µM.
Under `O=C(c1ccco1)N1CCN(C(=O)C2CCCO2)CC1` (configuration not stated) stands inactive: > 76.9 µM; under `Cn1c(SCC(=O)N2CCc3ccccc3C2)nnc1-c1cccs1`, inactive: > 76.9 µM.
Under `CN(C(=O)COC(=O)c1ccc2c(c1)OCO2)C1CCS(=O)(=O)C1` (configuration not stated) stands inactive: > 76.9 µM; under `COc1ccc(N(Cc2cc3ccc(C)cc3[nH]c2=O)C(C)=O)cc1`, inactive: > 76.9 µM.
Take `COc1cccc(OC)c1OCCOCCn1cnc2ccccc2c1=O`: the Potency was inactive: > 76.9 µM.
Under `Cc1ccc(-c2noc(CCC(N)=O)n2)cc1` stands inactive: > 76.9 µM.
Under `O=C(c1ccc(Cl)cc1)N(Cc1cccs1)C1CCS(=O)(=O)C1` (configuration not stated) stands inactive: > 76.9 µM; under `Cc1occc1C(=O)Nc1cc(C(F)(F)F)ccc1Cl`, inactive: > 76.9 µM.
Under `CCOC(=O)c1cnn(-c2nc(C)nc3sc4c(c23)CCC4)c1N` stands inactive: > 76.9 µM.
Regarding `COCCN(CCOC)C(=O)c1sc2nc(-c3ccccc3)cn2c1C`, the Potency was inactive: > 76.9 µM.
As for `CCOC(=O)c1ccc2c(c1)n(CCO)c(C)[n+]2CC`, the Potency is inactive: > 76.9 µM.
As for `COc1ccc(C(CNC(=O)Cc2cc(OC)c(OC)c(OC)c2)N2CCCC2)cc1` (configuration not stated), the Potency is inactive: > 76.9 µM.
In the case of `c1ccc2c(-c3ccncc3)c[nH]c2c1`, the Potency is inactive: > 76.9 µM.
Take `COc1cccc(-c2nnc3sc(-c4ccccn4)nn23)c1`: the Potency is inactive: > 76.9 µM.
Under `CCOC(=O)C(NC(=O)Nc1ccc(F)cc1)(OCC)C(F)(F)F` (configuration not stated) stands inactive: > 76.9 µM; under `O=C(COC(=O)CCOc1ccccc1)NCc1ccco1`, inactive: > 76.9 µM; under `Cc1cc(C)n(-c2nnc(C)n2NS(=O)(=O)c2ccc(F)cc2)n1`, inactive: > 76.9 µM.
Under `COCCCNC(=O)COc1ccc(S(=O)(=O)Nc2ccccc2)cc1` stands inactive: > 76.9 µM; under `COc1ccccc1N1CC(C(=O)OC(C)C(=O)N2CCCc3ccccc32)CC1=O` (configuration not stated), inactive: > 76.9 µM.
Under `O=C1CCCC2=C1C(c1ccc(Br)cc1)c1c([nH]c(=S)[nH]c1=O)N2` (configuration not stated) stands “inactive”.
As to `CCOC(=O)Nc1cc2c(C)cc(=O)oc2cc1C`, the Potency is inactive: > 76.9 µM.
Under `COCCNC(=O)c1ccccc1-c1ccccc1C(=O)O` stands “inactive”; under `CN(C)CCCN1C(=O)C(=O)/C(=C(/O)c2ccc3c(c2)OCCO3)C1c1ccco1` (configuration not stated), inactive: > 76.9 µM; under `CC(C)Cc1nnc(NC(=O)c2ccncc2)s1`, inactive: > 76.9 µM.
Under `O=C1c2ccccc2C2(c3ccccc3)NCCN12` (configuration not stated) stands inactive: > 76.9 µM; under `Cc1ccc(S(=O)(=O)Nc2nc3ccccc3nc2NCc2ccco2)cc1C`, inactive: > 76.9 µM; under `CCOc1ccccc1N(CC(=O)Nc1ccccc1C(=O)NCc1ccco1)S(C)(=O)=O`, inactive: > 76.9 µM.
Under `Cc1ccc(S(=O)(=O)c2c(N)n(CCN3CCOCC3)c3nc4ccccc4nc23)cc1C` stands “inactive”.
Take `COc1ccc(Oc2c(-c3ccc(O)cc3O)n[nH]c2C)cc1`: the Potency was inactive: > 76.9 µM.
For `CN(c1ccc(C(=O)NCc2cccnc2)cc1)S(C)(=O)=O`, the Potency is inactive: > 76.9 µM.
Under `COc1ccccc1Nc1nc(C)cc(C)c1C(N)=O` stands inactive: > 76.9 µM; under `O=C1CCC(=O)N1OCCOc1ccc2c(c1)CCC2`, inactive: > 76.9 µM; under `Cc1ccc(NC(=O)CN2C(=O)NC(Cc3ccccc3)C2=O)cc1` (configuration not stated), inactive: > 76.9 µM.
Under `NC(=O)C1CC(=O)N(c2ccc(OCC(=O)Nc3cccc(C(F)(F)F)c3)cc2)C1` (configuration not stated) stands inactive: > 76.9 µM.
Under `C=CCN1CN(S(=O)(=O)c2cccs2)c2nc3ccccc3nc21` stands inactive: > 76.9 µM; under `COc1cc(S(=O)(=O)NCC2COCCO2)ccc1-n1cnnn1` (configuration not stated), inactive: > 76.9 µM; under `COCCN(C(=O)c1csnn1)C(C(=O)NC(C)(C)C)c1cccc(OC)c1` (configuration not stated), inactive: > 76.9 µM.
For the compound `Cc1c(C(=O)O)sc2nc3n(c(=O)c12)CCC(C)CC3` (configuration not stated), the Potency was inactive: > 76.9 µM.
Under `CCn1c(CSc2ncccn2)nnc1SCC(=O)N1CCc2ccccc21` stands inactive: > 76.9 µM; under `COc1ccc(N(CC(=O)Nc2ccccc2SC)S(C)(=O)=O)cc1OC`, inactive: > 76.9 µM.
Under `Cc1ccc(CNC(=O)CSc2ncccn2)cc1` stands inactive: > 76.9 µM; under `COc1ccc(C2CC(=O)c3cnc(NC(=O)c4cccc(OC)c4)nc3C2)cc1` (configuration not stated), inactive: > 76.9 µM; under `CC(=O)N(c1ccc(C(C)C)cc1)C1C=CS(=O)(=O)C1` (configuration not stated), inactive: > 76.9 µM.
Under `O=C(c1noc2c1CCCC2)N1CCCCC1` stands inactive: > 76.9 µM; under `COc1ccc(C2CC(c3ccccc3)Nc3nc(NC(=O)c4cccs4)nn32)cc1` (configuration not stated), inactive: > 76.9 µM.
As to `CCOc1ccccc1NC(=O)CN(C)S(=O)(=O)c1ccc(OC)c(C)c1`, the Potency was inactive: > 76.9 µM.
As to `O=S(=O)(NCc1ccc2c(c1)OCO2)c1cccc(S(=O)(=O)N2CCOCC2)c1`, the Potency is inactive: > 76.9 µM.
For `Cc1ccc2nsnc2c1S(=O)(=O)NCc1ccc2c(c1)OCO2`, the Potency is inactive: > 76.9 µM.
Under `COc1ccc(NC(=O)Cn2nnc(-c3ccccc3NC(=O)c3ccco3)n2)cc1` stands active: 7.17 µM.
Under `CCOC(=O)C1CCCN(C(=O)CNC(=O)Cn2ccc3ccccc3c2=O)C1` (configuration not stated) stands inactive: > 76.9 µM.
Regarding `Cc1cc(C(=O)CSc2nnnn2C)c(C)n1CCc1ccc(F)cc1`, the Potency is inactive: > 76.9 µM.
With `CC(C)=C1C2CC2C2C(C(=O)O)C12` (configuration not stated), the Potency was inactive: > 76.9 µM.
As for `COc1ccc(-c2noc(CCC(=O)N(C)c3cccc(C)c3)n2)cc1`, the Potency was inactive: > 76.9 µM.
Under `COc1ccc(CNC(=O)C2CCCN2C(=O)NC2CCCCC2)cc1` (configuration not stated) stands inactive: > 76.9 µM; under `CCCn1c(SCC(N)=O)nnc1C(C)C`, inactive: > 76.9 µM; under `COC(=O)c1sc(NC(=O)c2ccc(OC)cc2OC)nc1C`, inactive: > 76.9 µM.
For the compound `CN(c1ccc(C(=O)NCCSC(C)(C)C)cc1)S(C)(=O)=O`, the Potency is inactive: > 76.9 µM.
With `COc1cc(OC)nc(NC(=O)CSc2nc3ccccc3[nH]2)n1`, the Potency was inactive: > 76.9 µM.
Consider `CCn1cc(CNC(=O)CCc2ccc(OC)cc2)cn1`, for which the Potency is inactive: > 76.9 µM.
Under `O=C(NCc1n[nH]c(=S)n1-c1ccc(F)cc1)c1ccco1` stands inactive: > 76.9 µM.
Regarding `COc1ccc(C(c2nnnn2Cc2ccc(F)cc2)N2CCN(c3ccccc3)CC2)cc1` (configuration not stated), the Potency is inactive: > 76.9 µM.
`O=C(COC(=O)CCc1c[nH]c(=O)[nH]1)Nc1ccccc1Cl`: the Potency was inactive: > 76.9 µM.
For `O=S1(=O)CCC(NS(=O)(=O)/C=C/c2ccccc2)C1` (configuration not stated), the Potency is inactive: > 76.9 µM.
Under `CC(NC(=O)CN1C(=O)COc2ccccc21)c1ccccc1` (configuration not stated) stands inactive: > 76.9 µM; under `Cc1ccc(OCc2nn3c(-c4ccco4)nnc3s2)cc1`, inactive: > 76.9 µM.
Under `Cc1cnn(C(=S)NCC2CCCO2)c1` (configuration not stated) stands inactive: > 76.9 µM.
Under `O=C(Nc1ccc(Oc2ccccc2)cc1)C1CCCN(c2ncccn2)C1` (configuration not stated) stands inactive: > 76.9 µM.
`COc1ccc(C)cc1NC(=O)c1ccc(NC(=O)CC2SC(N3CCCC3)=NC2=O)cc1` (configuration not stated): the Potency was inactive: > 76.9 µM.
Under `CN(C=O)CP(=O)(O)CCN1CCCC1=O` stands inactive: > 76.9 µM; under `CCN1C(=O)c2cccc3c(S(=O)(=O)NC(Cc4c[nH]c5ccccc45)C(=O)O)ccc1c23` (configuration not stated), inactive: > 76.9 µM.
Consider `CCN(CC)CCN1C(=O)C(=O)/C(=C(/O)c2cnn(-c3ccccc3)c2C)C1c1cccnc1` (configuration not stated), for which the Potency is inactive: > 76.9 µM.
Under `O=C(COc1ccccc1)N1CCNC1=O` stands inactive: > 76.9 µM.
Under `Cc1csc(OCc2ccc(C#N)cc2)n1` stands inactive: > 76.9 µM; under `O=C(COc1nsnc1N1CCOCC1)N1CCOCC1`, inactive: > 76.9 µM.
Take `COc1ccc(CCNC(=O)c2nc3ncccn3n2)cc1OC`: the Potency was inactive: > 76.9 µM.
Turning to `CCNC(=O)Cn1cnc2c1c(=O)n(C)c(=O)n2C`, the Potency is inactive: > 76.9 µM.
Under `CC[C@@H](C)[C@H](NS(=O)(=O)c1ccc(C)cc1)C(=O)N1CCC(C(=O)NCC(=O)O)CC1` stands inactive: > 76.9 µM; under `CCOC(=O)CNC(=O)CSc1nc2nc(C)c(Br)cc2[nH]1`, inactive: > 76.9 µM; under `C=CCn1c(=O)c2ccccc2n2c(SCc3cc(=O)n4ccsc4n3)nnc12`, inactive: > 76.9 µM.
With `O=C(NC1CCCCC1)N1CCN(CCc2ccccc2)CC1`, the Potency is inactive: > 76.9 µM.
Under `CCOc1ccc(OCCSc2nnnn2C2CCCCC2)cc1` stands inactive: > 76.9 µM; under `CCOC(=O)c1c(NC(=O)CSc2nnnn2-c2ccc3c(c2)OCO3)sc(C)c1C`, inactive: > 76.9 µM.
On to `CC(=O)Nc1cccc(C(=O)N2CCN(Cc3ccccc3)CC2)c1`, for which the Potency was inactive: > 76.9 µM.
